# The list shows a part of the results. Single values of this set are uncertain. Values with irradiation are relative to irradiated vehicle.
# Tested on: A549-Dual
# Assay: ISRE reporter (Lucia luciferase) activity, viability-corrected, relative to vehicle (fold change vs vehicle); higher = more activation of STING-IRF / NF-kB immune response reporter
# Conditions: 10 µM; irradiation: 8 Gy/4 fr
row,Structure (SMILES),ISRE reporter
1,COc1ccccc1OCC(O)COC(N)=O (stereo not drawn) [Methocarbamol],1.09
2,COC1/C=C/OC2(C)Oc3c(C)c(O)c4c(O)c(c(/C=N/N5CCN(C6CCCC6)CC5)c(O)c4c3C2=O)NC(=O)/C(C)=C/C=C/C(C)C(O)C(C)C(O)C(C)C(OC(C)=O)C1C (stereo in doubt) [Rifapentine],0.558
3,OCC(O)C(O)C(O)C(O)CO (stereo not drawn) [Sorbitol],0.661
4,CC(=O)O.CC(N)C(=O)NCC(=O)NC1CSSCC(C(=O)O)NC(=O)C(CO)NC(=O)C(C(C)O)NC(=O)C(Cc2ccccc2)NC(=O)C(C(C)O)NC(=O)C(CCCCN)NC(=O)C(Cc2c[nH]c3ccccc23)NC(=O)C(Cc2ccccc2)NC(=O)C(Cc2ccccc2)NC(=O)C(CC(N)=O)NC(=O)C(CCCCN)NC1=O (stereo not drawn) [Somatostatin Acetate],0.904
5,O=c1c(-c2ccc(O)cc2)coc2cc(OC3OC(CO)C(O)C(O)C3O)ccc12 (stereo not drawn) [Daidzin],0.647
6,C[n+]1cccc(C(=O)O)c1.[Cl-] [Trigonelline Hydrochloride],0.606
7,CCCN(CCc1cccs1)C1CCc2c(O)cccc2C1 (stereo not drawn) [Rotigotine],0.816
8,CCc1ccc(CCOc2ccc(CC3SC(=O)NC3=O)cc2)nc1.Cl (stereo not drawn) [Pioglitazone HCl],0.493
9,N#C/C(=C1/SCC(c2ccc(Cl)cc2Cl)S1)n1ccnc1 (stereo not drawn) [Luliconazole],0.976
10,Cc1cccc(CN2CCN(C(c3ccccc3)c3ccc(Cl)cc3)CC2)c1.Cl.Cl (stereo not drawn) [Meclizine 2HCl],0.996
11,O=c1ccc2ccc(O)cc2o1 [Umbelliferone],0.735
12,CN(C)C1C(O)=C(C(N)=O)C(=O)C2(O)C(O)=C3C(=O)c4c(O)cccc4C(C)(O)C3C(O)C12.O.O (stereo not drawn) [Oxytetracycline Dihydrate],0.723
13,CO/N=C(\C(=O)NC1C(=O)N2C(C(=O)[O-])=C(COC(C)=O)CSC12)c1csc(N)n1.[Na+] (stereo not drawn) [Cefotaxime sodium],0.938
14,Cc1cc(-n2c(=O)[nH]c(=O)n(C)c2=O)ccc1Oc1ccc(SC(F)(F)F)cc1 [Toltrazuril],0.826
15,CCOc1ccc2c(c1)C(C)=CC(C)(C)N2 [Ethoxyquin],1.04
16,O=C1c2cccc(O)c2C(=O)c2c(O)cccc21 [Danthron],0.978
17,O=C1OC2(c3ccc(O)cc3Oc3cc(O)ccc32)c2ccccc21 [Fluorescein],1.39
18,CCCCc1nc(C)c(CC(=S)N(C)C)c(=O)n1Cc1ccc(-c2ccccc2-c2nnn[nH]2)cc1 [Fimasartan],0.809
19,O=C(NCCN1CCOCC1)c1ccc(Cl)cc1,0.646
20,NC(=O)CC(N)C(=O)O.O (stereo not drawn) [L(+)-Asparagine monohydrate],0.798
21,CN(C)CC(c1ccc(O)cc1)C1(O)CCCCC1.O=C(O)CCC(=O)O (stereo not drawn) [Desvenlafaxine Succinate],0.988
22,COc1cc2ccc(=O)oc2cc1O [Scopoletin],0.105
23,COC(=O)NC(C(=O)N1CCCC1c1ncc(-c2ccc3c(c2)OC(c2ccccc2)n2c-3cc3cc(-c4cnc(C5CCCN5C(=O)C(NC(=O)OC)C(C)C)[nH]4)ccc32)[nH]1)C(C)C (stereo not drawn) [Elbasvir],1.26

# — the supplement of paper PMC9174493
